# Test results reported in PubChem BioAssay AID651820 (National Center for Advancing Translational Sciences (NCATS), 2012).
# Among all 340,000 compounds or so, about 12,000 (3.5%) were called active. The inconclusive results got no clear call from the source; some entries with a clear call stand among them for comparison. The call rests on the fitted dose curve; in most records, active means well fitted inhibition curve with a large enough effect; inconclusive means small, poorly fitted or top-dose-only effect, or another doubt; inactive means no such curve, though single readings can be large or run the other way. Potencies of inconclusive entries are left out as doubtful fits.
# Test: qHTS Assay for Inhibitors of Hepatitis C Virus (HCV)
# Conditions: Huh7.5.1 HCVcc-Cre (HCVcc is cell-culture hepatitis C virus) infection, luciferase reporter, 44 h; activity change, negative = inhibition: at 41.8 µM (top of the series) unless noted
# Summary of the method: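 Infectious HCVcc-Cre (~0.5 moi) was added to cells just after compound, with cells seeded 4 h earlier at 1,000 per well. Luciferase activity after 44 h culture reported infection; substrate was incubated 15 min at room temperature before reading.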
# On the % scale 0 is the no-effect control and ±100 the full control effect; potency means the concentration at half of the fitted maximal effect; tags describe the fitted curve by direction and shape.
SMILES,"activity change, negative = inhibition",Potency
Cc1ccc(C(=O)NC2CC3CCCC(C2)N3Cc2ccccc2)cc1 (stereo unspecified),inactive: 8.73%,–
O=C(NC1CCCCC1)N(Cc1nc2ccccc2c(=O)[nH]1)C1CCCC1,–,"inconclusive [inhibitor, full curve, poor fit]"
Cc1cccc(C(=O)N2CCC(Cc3ccccc3)CC2)c1[N+](=O)[O-],–,"inconclusive [inhibitor, single point]"
CC(C)(C)C(=O)Nc1ccccc1N1CCN(C(=O)c2ccc(Cl)cc2)CC1,–,"inconclusive [inhibitor, single point]"
CCOc1cc(N2CCOCC2)c(OCC)cc1NC(=O)c1cccc(N(C)C)c1,–,"inconclusive [inhibitor, partial curve]"
O=C1OC(N2C(=O)CC[C@H]2C(=O)Nc2ccc3c(c2)OCO3)c2ccccc21 (stereo partly specified),–,active: 0.891 µM
O=C(/C=C/c1cccs1)c1cc(Cl)ccc1OC(=O)N1CCOCC1,–,"inconclusive [inhibitor, single point]"
CC(=O)C(=Nc1ccc(Cl)cc1Cl)NNc1cccc(Cl)c1,–,active: 10 µM
Cn1c(N)c(C(=O)COC(=O)c2cccnc2Cl)c(=O)n(C)c1=O,–,"inconclusive [inhibitor, single point]"
COc1cc2[nH]c3c(=O)n(CCN4CCCCC4)cnc3c2cc1OC,–,"inconclusive [inhibitor, single point]"
COc1ccc(-c2nn(-c3ccccc3)cc2C(=O)N2CCN(S(=O)(=O)c3ccccc3[N+](=O)[O-])CC2)cc1,–,"inconclusive [inhibitor, single point]"
COc1ccc(-c2nc3c4ccccc4ccn3c2CN2CCCCC2)cc1OC,–,active: 11.2 µM
CC1(C)CC(NC(=O)COc2cc3oc(=O)c4c(c3cc2Cl)CCC4)CC(C)(C)N1,–,"inconclusive [inhibitor, partial curve]"
O=C1/C(=C\c2ccc(O)cc2)CCC1CNc1ccc(Cl)cc1 (stereo unspecified),–,"inconclusive [inhibitor, partial curve]"
C=CCn1c(SCC(=O)NCC)nnc1-c1cc2c(s1)CCC(CC)C2 (stereo unspecified),–,"inconclusive [inhibitor, single point]"
CCN(CC)S(=O)(=O)c1ccc(N2CCOCC2)c(NC(=O)c2c3c(nc4ccccc24)CCC3)c1,–,"inconclusive [inhibitor, partial curve]"
CC/C(=N\NC(=S)Nc1ccc(OC)cc1)c1ccc(OC(F)F)cc1,inactive: -7.76%,–
COC(=O)c1ccsc1NC(=O)c1cccc(OC)c1,–,"inconclusive [inhibitor, single point]"
CCCCCOC(=O)C(C)Sc1n[nH]c(=O)[nH]c1=O (stereo unspecified),inactive: 27.7%,–
COc1ccc(Cl)cc1C(=O)NNC(=S)NC(=O)/C=C/c1ccco1,–,"inconclusive [inhibitor, single point]"
COC(=O)c1ccc(CN2CCC(CO)(Cc3ccc(OC)cc3)CC2)cc1,–,"inconclusive [inhibitor, single point]"
CN(CC(=O)N1CCN(c2ncccn2)CC1)S(=O)(=O)c1ccc(Cl)cc1,inactive: -1.75%,–
O=C1NC(=O)C2(CCCCC2)N1,–,"inconclusive [inhibitor, single point]"
O=C(Cc1ccc(Cl)cc1)Nc1ccccc1Sc1ccccc1,–,"inconclusive [inhibitor, single point]"

SMILES,"activity change, negative = inhibition",Potency
C=CCOC(=O)C1=C(C)OC(N)=C(C#N)C1c1ccc(OC)c(CSc2ccccn2)c1 (stereo unspecified),inactive: -0.354%,–
CCCCCOc1ccc(NC(=O)c2cc(SC)ccc2Cl)cc1,–,"inconclusive [inhibitor, single point]"
O=c1oc(CCO)cc2ccc(Br)cc12,–,"inconclusive [inhibitor, full curve, poor fit]"
O=C(c1cccc2ccccc12)N1CCN(c2ccc([N+](=O)[O-])c(NCc3ccco3)c2)CC1,–,"inconclusive [inhibitor, full curve, poor fit]"
COc1cc(C(=O)NCCOC(=O)c2cccc(N(C)C)c2)cc(OC)c1OC,–,"inconclusive [inhibitor, single point]"
Cc1ccc2c(C)c(C(=O)Nc3ccc(S(N)(=O)=O)cc3)oc2c1C,–,"inconclusive [inhibitor, partial curve]"
CCOc1cc(/C=C2\SC(N3CCCCC3)=NC2=O)ccc1O,–,"inconclusive [inhibitor, single point]"
C=CCNC(=O)c1ccc(-c2nc(-c3ccc(Cl)cc3Cl)cs2)cc1,–,"inconclusive [inhibitor, partial curve]"
CC(C)Sc1cc(Cl)nc(NC(=O)Nc2ccccc2)n1,inactive: 21.1%,–
Clc1ccccc1/C=C/c1ccnc2ccccc12,–,"inconclusive [inhibitor, single point]"
COc1cccc(CNC(=O)CCC2CCCN(C/C=C/c3ccccc3OC)C2)c1 (stereo unspecified),–,"inconclusive [inhibitor, single point]"
CC[C@]12c3[nH]c4ccc(Cl)cc4c3CCN1C(=O)[C@@H](CC(=O)NCc1cccc(C(F)(F)F)c1)C[C@@H]2C(=O)N1CCN(C(=O)C2CC2)CC1,–,active: 35.5 µM
CCc1cccc(NC(=S)N(CCN(C)C)C2CCN(C(C)C)CC2)c1,–,active: 8.91 µM
CCOC(=O)c1cc2c(ccn2C)n1CC(=O)N1CCN(c2ccc(F)cc2)CC1,–,"inconclusive [inhibitor, single point]"
CC1=NN(c2ccccc2C)C(=O)C1,inactive: 12.2%,–
O=C(Nc1ccc(OCc2ccccc2)cc1)Nc1cccnc1,–,"inconclusive [inhibitor, single point]"
Cc1c(C(=O)N(C)Cc2nc3ccccc3c(=O)[nH]2)oc2ccccc12,–,"inconclusive [inhibitor, partial curve]"
CC(C)=CC(=O)OCC(=O)NC1CCCc2ccccc21 (stereo unspecified),inactive: 12.8%,–
Clc1cccc2c1Sc1ccccc1CC2N1CCNCC1 (stereo unspecified),–,active: 10 µM
C=CCC1(O)C(=O)N2C(=C1C(=O)OCC)c1ccc3ccccc3c1CC2(C)C (stereo unspecified),–,"inconclusive [inhibitor, single point]"
COc1ccc(CCNC(=O)c2ccc3c(c2)N(Cc2ccc(C)cc2)CCS3)cc1OC,–,active: 8.91 µM
Cc1cc(Br)c(NC(=O)CN2CC=C(c3ccccc3)CC2)c(Br)c1,inactive: -4.11%,–
COc1cc(/C=C2/CC/C(=C/c3ccc(O)c(OC)c3)C2=O)ccc1O,–,active: 12.6 µM
Cc1ccc(C(C)(C)NC(=O)C2CCC(=O)N(C3CCCCCC3)C2)cc1 (stereo unspecified),inactive: 8.15%,–

SMILES,"activity change, negative = inhibition",Potency
Cc1ccccc1NC(=O)Cn1nc(C(=O)O)c2ccccc2c1=O,inactive: 3.97%,–
CC(=O)c1c(C)[nH]c(C(=O)NCc2ccccc2F)c1C,–,"inconclusive [inhibitor, partial curve]"
CN(C)S(=O)(=O)c1cccc(N2C(=O)CC3(CCCCC3)CC2=O)c1,–,"inconclusive [inhibitor, single point]"
COc1ccc(C(=O)N/N=C/c2ccc(OC)c(COc3ccc(F)cc3F)c2)cc1,–,"inconclusive [inhibitor, partial curve]"
COc1ccc(C(=O)Nc2cc(OC)c(Cl)cc2OC)cc1,–,"inconclusive [inhibitor, single point]"
COCCN1C=C(C(=O)OC)C(c2cc3c(cc2Br)OCO3)C(C(=O)OC)=C1,inactive: 10.7%,–
CCCNC(=O)Cc1ncn[nH]1,inactive: 18%,–
O=C(COc1ccc(F)cc1)c1c(O)cc(O)cc1O,inactive: 18.7%,–
Cc1cc(C)nc(NC2=NCCN2C(=S)Nc2ccc(C)c(C)c2)n1,inconclusive: -34.5% [inhibitor],–
CC(=O)N1c2ccc(S(=O)(=O)N3CCCC(C(=O)Nc4cccc(F)c4)C3)cc2CC1C (stereo unspecified),–,active: 11.2 µM
CCOc1ccccc1CNC(=O)Cn1ccc2cc(S(=O)(=O)N3CCC(C)CC3)ccc21,–,"inconclusive [inhibitor, single point]"
CCC(C)c1ccc(NC(=O)COC(=O)C2CCCC2)cc1 (stereo unspecified),inactive: 24.4%,–
CCOC(=O)c1c(-c2ccccc2)oc2ccc(OCC(O)CN(C)C)cc12 (stereo unspecified),–,active: 14.1 µM
CC(C)[C@H](Nc1ccc(S(=O)(=O)N2CCOCC2)cc1[N+](=O)[O-])C(=O)OCC(=O)N(C(C)C)C(C)C,–,"inconclusive [inhibitor, single point]"
CCOC(=O)c1c(C)[nH]c(C)c1C(=O)Cn1nnc(-c2ccccc2C)n1,–,"inconclusive [inhibitor, partial curve]"
O=C(Nc1ccccc1)[C@@H]1CCCN1S(=O)(=O)c1ccc(Cl)cc1,inactive: -0.951%,–
CCOCCCNC(=O)C(c1ccc(C)cc1)N(Cc1ccc2c(c1)OCO2)C(=O)c1ccccn1 (stereo unspecified),–,"inconclusive [inhibitor, single point]"
N/C(=N\OC(=O)CC(c1ccccc1)c1ccccc1)c1cccnc1,–,"inconclusive [inhibitor, single point]"
Cc1cc(C)c2c(c1)-c1cc(C)nn1C(c1ccc3c(c1)OCO3)N2 (stereo unspecified),–,"inconclusive [inhibitor, partial curve]"
CCCc1cc(C(=O)Nc2cccc3ccccc23)n(C)n1,inactive: -13.8%,–
COc1cc(-n2nnnc2SC)c(OC)cc1Cl,inactive: 5.86%,–
CC(=O)c1c(C)[nH]c(C(=O)OCC(=O)N(CC(C)C)C2CCS(=O)(=O)C2)c1C (stereo unspecified),–,"inconclusive [inhibitor, full curve]"
Cc1c(C(=O)Nc2ccc(F)c(F)c2)oc2ccc(S(=O)(=O)N3CCCCC3)cc12,–,active: 6.31 µM
